Measured values published in publication PMC9911399, “Two distinct binding modes provide the RNA-binding protein RbFox with extraordinary sequence specificity”.
Positions count from the first letter of the chain named. This is one part of the list.

B1: GUUCUGU (DNA:RNA)
RNA: GGGAGACCGGAAUUCAGAUUGUCCGUUCUGUUUAAAUCCCGUCGUAGCCACCA
DNA 1: CAATCTGAATTCCGGTCTCCC
DNA 2: TGGTGGCTACGACGGGATT
B2: CCACGAG (DNA:RNA)
RNA: B1 RNA with G25C, U26C, U27A, U29G, G30A, U31G
DNA 1: CAATCTGAATTCCGGTCTCCC
DNA 2: TGGTGGCTACGACGGGATT
B3: CUCCAUG (DNA:RNA)
RNA: B1 RNA with G25C, U27C, U29A, G30U, U31G
DNA 1: CAATCTGAATTCCGGTCTCCC
DNA 2: TGGTGGCTACGACGGGATT
B4: AGUGUGG (DNA:RNA)
RNA: B1 RNA with G25A, U26G, C28G, U31G
DNA 1: CAATCTGAATTCCGGTCTCCC
DNA 2: TGGTGGCTACGACGGGATT
B5: UGCAAUU (DNA:RNA)
RNA: B1 RNA with G25U, U26G, U27C, C28A, U29A, G30U
DNA 1: CAATCTGAATTCCGGTCTCCC
DNA 2: TGGTGGCTACGACGGGATT
B6: GUUGGUG (DNA:RNA)
RNA: B1 RNA with C28G, U29G, G30U, U31G
DNA 1: CAATCTGAATTCCGGTCTCCC
DNA 2: TGGTGGCTACGACGGGATT
B7: UCCGUCC (DNA:RNA)
RNA: B1 RNA with G25U, U26C, U27C, C28G, G30C, U31C
DNA 1: CAATCTGAATTCCGGTCTCCC
DNA 2: TGGTGGCTACGACGGGATT
B8: UAUAACA (DNA:RNA)
RNA: B1 RNA with G25U, U26A, C28A, U29A, G30C, U31A
DNA 1: CAATCTGAATTCCGGTCTCCC
DNA 2: TGGTGGCTACGACGGGATT
B9: AUAACAC (DNA:RNA)
RNA: B1 RNA with G25A, U27A, C28A, U29C, G30A, U31C
DNA 1: CAATCTGAATTCCGGTCTCCC
DNA 2: TGGTGGCTACGACGGGATT
B10: CAUAAUU (DNA:RNA)
RNA: B1 RNA with G25C, U26A, C28A, U29A, G30U
DNA 1: CAATCTGAATTCCGGTCTCCC
DNA 2: TGGTGGCTACGACGGGATT
B11: AGCCUUC (DNA:RNA)
RNA: B1 RNA with G25A, U26G, U27C, G30U, U31C
DNA 1: CAATCTGAATTCCGGTCTCCC
DNA 2: TGGTGGCTACGACGGGATT
B12: ACGCACA (DNA:RNA)
RNA: B1 RNA with G25A, U26C, U27G, U29A, G30C, U31A
DNA 1: CAATCTGAATTCCGGTCTCCC
DNA 2: TGGTGGCTACGACGGGATT
B13: UCAUUCG (DNA:RNA)
RNA: B1 RNA with G25U, U26C, U27A, C28U, G30C, U31G
DNA 1: CAATCTGAATTCCGGTCTCCC
DNA 2: TGGTGGCTACGACGGGATT
B14: CUCAUAG (DNA:RNA)
RNA: B1 RNA with G25C, U27C, C28A, G30A, U31G
DNA 1: CAATCTGAATTCCGGTCTCCC
DNA 2: TGGTGGCTACGACGGGATT
B15: AUCGAUC (DNA:RNA)
RNA: B1 RNA with G25A, U27C, C28G, U29A, G30U, U31C
DNA 1: CAATCTGAATTCCGGTCTCCC
DNA 2: TGGTGGCTACGACGGGATT
B16: AGUAGAC (DNA:RNA)
RNA: B1 RNA with G25A, U26G, C28A, U29G, G30A, U31C
DNA 1: CAATCTGAATTCCGGTCTCCC
DNA 2: TGGTGGCTACGACGGGATT
B17: AUUCCAU (DNA:RNA)
RNA: B1 RNA with G25A, U29C, G30A
DNA 1: CAATCTGAATTCCGGTCTCCC
DNA 2: TGGTGGCTACGACGGGATT
B18: GACGCAG (DNA:RNA)
RNA: B1 RNA with U26A, U27C, C28G, U29C, G30A, U31G
DNA 1: CAATCTGAATTCCGGTCTCCC
DNA 2: TGGTGGCTACGACGGGATT
B19: GGAGCUA (DNA:RNA)
RNA: B1 RNA with U26G, U27A, C28G, U29C, G30U, U31A
DNA 1: CAATCTGAATTCCGGTCTCCC
DNA 2: TGGTGGCTACGACGGGATT
B20: GAACAUG (DNA:RNA)
RNA: B1 RNA with U26A, U27A, U29A, G30U, U31G
DNA 1: CAATCTGAATTCCGGTCTCCC
DNA 2: TGGTGGCTACGACGGGATT
B21: ACGAGCA (DNA:RNA)
RNA: GGGAGACCGGAAUUCAGAUUGUCCACGAGCAUUAAAUCCCGUCGUAGCCACCA
DNA 1: CAATCTGAATTCCGGTCTCCC
DNA 2: TGGTGGCTACGACGGGATT
B22: CCGACAC (DNA:RNA)
RNA: B21 RNA with A25C, G29C, C30A, A31C
DNA 1: CAATCTGAATTCCGGTCTCCC
DNA 2: TGGTGGCTACGACGGGATT
B23: UAGAAGG (DNA:RNA)
RNA: B21 RNA with A25U, C26A, G29A, C30G, A31G
DNA 1: CAATCTGAATTCCGGTCTCCC
DNA 2: TGGTGGCTACGACGGGATT
B24: AAAACGU (DNA:RNA)
RNA: B21 RNA with C26A, G27A, G29C, C30G, A31U
DNA 1: CAATCTGAATTCCGGTCTCCC
DNA 2: TGGTGGCTACGACGGGATT
B25: CAGUUCG (DNA:RNA)
RNA: B21 RNA with A25C, C26A, A28U, G29U, A31G
DNA 1: CAATCTGAATTCCGGTCTCCC
DNA 2: TGGTGGCTACGACGGGATT
B26: CCUUGCG (DNA:RNA)
RNA: B21 RNA with A25C, G27U, A28U, A31G
DNA 1: CAATCTGAATTCCGGTCTCCC
DNA 2: TGGTGGCTACGACGGGATT
B27: GCUAUCG (DNA:RNA)
RNA: B21 RNA with A25G, G27U, G29U, A31G
DNA 1: CAATCTGAATTCCGGTCTCCC
DNA 2: TGGTGGCTACGACGGGATT
B28: ACAAGGG (DNA:RNA)
RNA: B21 RNA with G27A, C30G, A31G
DNA 1: CAATCTGAATTCCGGTCTCCC
DNA 2: TGGTGGCTACGACGGGATT
B29: AGGGCCC (DNA:RNA)
RNA: B21 RNA with C26G, A28G, G29C, A31C
DNA 1: CAATCTGAATTCCGGTCTCCC
DNA 2: TGGTGGCTACGACGGGATT
B30: UAGUUAA (DNA:RNA)
RNA: B21 RNA with A25U, C26A, A28U, G29U, C30A
DNA 1: CAATCTGAATTCCGGTCTCCC
DNA 2: TGGTGGCTACGACGGGATT
B31: UUAACGG (DNA:RNA)
RNA: B1 RNA with G25U, U27A, C28A, U29C, U31G
DNA 1: CAATCTGAATTCCGGTCTCCC
DNA 2: TGGTGGCTACGACGGGATT

Target: T1, RBFOX1 RRM (Homo sapiens, UniProt Q9NWB1 109-208)
T1 sequence: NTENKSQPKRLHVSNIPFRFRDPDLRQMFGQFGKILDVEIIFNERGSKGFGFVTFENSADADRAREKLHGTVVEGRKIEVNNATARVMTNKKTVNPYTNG
Assay: EMSA; HiTS-Eq, 1 nM pool, 10 min; buffer printed only for the single-RNA assays: 10 mM Tris pH 7.5, 150 mM NaCl, 3.4 mM EDTA, 0.001% NP-40, 30 C
Conditions: tags: His6 N-terminal (pET28a); label: 5' 32P
Summary of the method: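 A pool of RNA with 7 randomized nucleotides, 5′-radiolabelled and with DNA-annealed flanks, was equilibrated at 1 nM for 10 min in 50 µL with purified RbFox RRM, wild type or mutant, across increasing protein concentrations. Free RNA was separated by 8% native PAGE, excised, reverse-transcribed, barcoded by PCR and sequenced. Relative association constants were obtained from read-count changes of each RNA species versus the control reaction and normalised to the cognate motif.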

Binder | binding signal
B1 | 0.0229 KA relative to UGCAUGU
B2 | 0.00481 KA relative to UGCAUGU
B3 | 0.00902 KA relative to UGCAUGU
B4 | 0.0145 KA relative to UGCAUGU
B5 | 0.00982 KA relative to UGCAUGU
B6 | 0.0258 KA relative to UGCAUGU
B7 | 0.00497 KA relative to UGCAUGU
B8 | 0.00681 KA relative to UGCAUGU
B9 | 0.00131 KA relative to UGCAUGU
B10 | 0.0023 KA relative to UGCAUGU
B11 | 0.00778 KA relative to UGCAUGU
B12 | 0.00609 KA relative to UGCAUGU
B13 | 0.00905 KA relative to UGCAUGU
B14 | 0.00247 KA relative to UGCAUGU
B15 | 0.00475 KA relative to UGCAUGU
B16 | 0.00654 KA relative to UGCAUGU

Binder | binding signal
B17 | 0.000205 KA relative to UGCAUGU
B18 | 0.0181 KA relative to UGCAUGU
B19 | 0.0106 KA relative to UGCAUGU
B20 | 0.00915 KA relative to UGCAUGU
B21 | 0.0135 KA relative to UGCAUGU
B22 | 0.00368 KA relative to UGCAUGU
B23 | 0.0079 KA relative to UGCAUGU
B24 | 0.000755 KA relative to UGCAUGU
B25 | 0.0101 KA relative to UGCAUGU
B26 | 0.0117 KA relative to UGCAUGU
B27 | 0.0164 KA relative to UGCAUGU
B28 | 0.00436 KA relative to UGCAUGU
B29 | 0.0184 KA relative to UGCAUGU
B30 | 0.00724 KA relative to UGCAUGU
B31 | 0.00502 KA relative to UGCAUGU
